Source: PubChem BioAssay AID624417 (National Center for Advancing Translational Sciences (NCATS), 2012)
The campaign covered roughly 410,000 compounds. About 6,400 (1.6%) were called active. The shares of active, inactive and inconclusive entries below differ from those in the screen. Calls follow the shape of the dose curve; as a rule, active = well fitted inhibition curve with a large enough effect; inconclusive = small, poorly fitted or top-dose-only effect; inactive = no such curve, though single readings can be large or run the other way. Potencies of inconclusive entries are left out as doubtful fits.

Target: Glucagon-like peptide 1 receptor (Homo sapiens) (UniProt P43220)
Assay: qHTS of GLP-1 Receptor Inverse Agonists (Inhibition Mode); also: nearly all actives have a fitted effect of over 55% in size
Settings: HEK293 GLP-1R CRE-luciferase, luminescence, 24 h, GLP-1R form is constitutively active; series mostly up to 38.3 µM
Outline: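 Constitutively active GLP-1R drives a cAMP-responsive luciferase in stably transfected HEK293 cells; test compounds are added after overnight (12 h) attachment and left 24 hr, and signal loss in luminescence marks inhibition.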
Potency is read from the fitted curve at half-maximal effect; tags tell the direction and shape of the fitted curve.

UniProt P43220, sequence (P43220 whole entry, looked up): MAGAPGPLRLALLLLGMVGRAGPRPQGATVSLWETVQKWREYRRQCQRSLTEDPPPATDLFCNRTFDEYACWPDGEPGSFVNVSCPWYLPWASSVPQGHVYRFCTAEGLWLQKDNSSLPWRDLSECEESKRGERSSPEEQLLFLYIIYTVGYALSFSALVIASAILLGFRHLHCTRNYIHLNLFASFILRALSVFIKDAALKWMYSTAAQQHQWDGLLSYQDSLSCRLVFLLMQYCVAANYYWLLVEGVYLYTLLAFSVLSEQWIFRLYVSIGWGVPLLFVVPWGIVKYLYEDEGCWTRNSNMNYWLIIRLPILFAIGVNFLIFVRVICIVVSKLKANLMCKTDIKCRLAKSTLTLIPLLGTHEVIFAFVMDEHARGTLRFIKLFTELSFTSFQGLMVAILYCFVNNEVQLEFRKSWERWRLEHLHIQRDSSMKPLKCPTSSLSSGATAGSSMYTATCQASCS

| SMILES | Potency |
| --- | --- |
| CCN(CC)C(=O)C1CCCN(Cc2cccc(Oc3ccccc3)c2)C1 (stereo not drawn) | inconclusive [inhibitor, single point] |
| O=C1C(NS(=O)(=O)c2ccc(Cl)cc2)=C(N2CCCCC2)C(=O)c2ccccc21 | inconclusive [inhibitor, partial curve, poor fit] |
| COc1cccc(-c2ccc3c(N)c(C(=O)Nc4ccccc4C)sc3n2)c1 | inconclusive [inhibitor, single point] |
| O=C(NNC(=O)c1ccc(-c2ccc([N+](=O)[O-])cc2)o1)c1ccncc1 | inactive |
| CC(=O)Nc1ccc(S(=O)(=O)N(Cc2ccccc2)Cc2ccccc2)cc1 | inconclusive [inhibitor, single point] |
| O=C(c1ccccc1)C1CCN(C(=O)C2CCC(=O)N(Cc3cccc(F)c3)C2)CC1 (stereo not drawn) | inconclusive [inhibitor, full curve, poor fit] |
| CCOC(=O)C1(Cc2cccc(Cl)c2)CCCN(C(=O)c2occc2C)C1 (stereo not drawn) | active: 11.2 µM |
| O=C(CN1C(=O)NC2(CCOc3ccccc32)C1=O)c1ccc(Br)cc1 (stereo not drawn) | inconclusive [inhibitor, partial curve, poor fit] |
| O=C(C=Cc1ccccc1O)c1ccccc1O | active: 7.94 µM |
| C=Cc1ccc(Cn2c(=O)n(CC3CCC(C(=O)NC(C)C)CC3)c(=O)c3sccc32)cc1 (stereo not drawn) | inactive |
| COc1ccccc1CC(=O)Nc1nc(-c2ccc(F)c(F)c2)cs1 | inconclusive [inhibitor, partial curve] |
| COc1ccc(C(CNC(=O)Cc2ccccc2F)N2CCCCC2)cc1 (stereo not drawn) | inactive |
| CCc1ccc(CNC(=O)c2ccc(CS(=O)(=O)Cc3cccc(C)c3)o2)cc1 | inconclusive [inhibitor, single point] |
| C[C@H](NC(=O)c1ccc(C(C)(C)C)cc1)C(=O)N1CCC2(CC1)NCCc1[nH]cnc12 | inconclusive [inhibitor, single point] |
| CS(=O)(=O)N(Cc1ccc(Cl)cc1)c1ccc(C(=O)NCCSc2ccccn2)cc1 | inconclusive [inhibitor, partial curve, poor fit] |
| O=C(NCc1ccc(Cl)cc1)c1ccc2c(c1)N(Cc1ccccc1F)C(=O)c1ccccc1S2=O (stereo not drawn) | inconclusive [inhibitor, single point] |
| O=C(COC(=O)c1c2c(nc3ccccc13)CCCCC2)NCc1ccc2c(c1)OCO2 | inconclusive [inhibitor, partial curve, poor fit] |
| O=C(Nc1ccc(CN2CCOCC2)cc1)c1ccc(-c2cccc([N+](=O)[O-])c2)o1 | inconclusive [inhibitor, single point] |
| CC1CCCCN1S(=O)(=O)c1ccc(C(=O)N(CCCN(C)C)c2nc3ccc(Br)cc3s2)cc1 (stereo not drawn) | inconclusive [inhibitor, partial curve, poor fit] |

| SMILES | Potency |
| --- | --- |
| CCn1cnc2cc(NC(=O)c3ccco3)ccc21 | inconclusive [inhibitor, partial curve, poor fit] |
| CCC(C(=O)NCCc1ccc(Cl)cc1)n1ccc2cc(S(=O)(=O)N3CCCCC3)ccc21 (stereo not drawn) | inconclusive [inhibitor, partial curve, poor fit] |
| C=CCOc1c(CCC)cc(CCC)cc1C(N)=O | inconclusive [inhibitor, partial curve, poor fit] |
| CSc1ccc(CN2CCCC(CO)(Cc3ccccc3)C2)cc1 (stereo not drawn) | inconclusive [inhibitor, partial curve, poor fit] |
| Cc1ccc(NC(=O)C2CCCN(S(=O)(=O)c3ccc4c(c3)CCCC(=O)N4)C2)cc1Cl (stereo not drawn) | inconclusive [inhibitor, single point] |
| COc1ccc(N(C)C(=O)c2cc3c(s2)-c2ccccc2OC3)cc1 | inconclusive [inhibitor, single point] |
| COCCn1c(=S)[nH]c2cc(C(=O)NC3CCCCCC3)ccc2c1=O | inactive |
| Cc1ccc(Cl)cc1N1CCN(C(=O)C2CCCN(Cc3nc(-c4cccc(Cl)c4)oc3C)C2)CC1 (stereo not drawn) | active: 3.98 µM |
| C/C(=N\NC(=O)c1ccc([N+](=O)[O-])cc1)c1cc2ccccc2oc1=O | inconclusive [inhibitor, single point] |
| Cc1ccc(CC#N)c(-c2c(CC#N)ccc(C)c2C)c1C | inconclusive [inhibitor, full curve, poor fit] |
| CCn1c(CSCc2ccc(C)cc2)nnc1SCC(=O)NCc1ccccc1 | inconclusive [inhibitor, single point] |
| CC1(C)Cc2cccc(OC(=O)NCCc3ccc(F)cc3)c2O1 | inconclusive [inhibitor, single point] |
| CCCc1ccc(OCCNC(=O)c2ccccc2Br)cc1 | inconclusive [inhibitor, single point] |
| Cc1cc(-c2ccc(S(=O)(=O)Nc3cccc(Cl)c3C)cc2)on1 | inconclusive [inhibitor, partial curve, poor fit] |
| Cc1c(C(=O)Nc2ccc(-c3nnc4n3CCCCC4)cc2)oc2ccc(Br)cc12 | inconclusive [inhibitor, partial curve, poor fit] |
| CC(C)(C)[C@H]1C=C(C(=O)NCc2ccccc2)O[C@@H](OCc2ccc(CO)cc2)C1 | inconclusive [inhibitor, single point] |
| CC(=O)Nc1cccc(-c2ccnc3c2CC(C(=O)NCc2ccc(F)c(F)c2)O3)c1 (stereo not drawn) | inconclusive [inhibitor, full curve, poor fit] |
| CCOC(=O)[C@]12CCCC=C1N(Cc1ccco1)C(=O)[C@H](CC(=O)NCc1cccc(C(F)(F)F)c1)C2 | inconclusive [inhibitor, single point] |
| Cc1ccc(NC(=O)COc2cccc3c2OC(C)(C)C3)c(O)c1 | inconclusive [inhibitor, single point] |
